Measurements as given in the supplement of paper PMC8728848.
The other results are listed elsewhere or left out.

Columns and labels:
Assay in all cases: glycan array binding signal (z-score within array); higher = stronger binding
Conditions in all cases: glycan notation: IUPAC condensed, linker removed
Glc(b1-6)Glc = molecular target: Glc(b1-6)Glc
Summary of the method: (§1)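 The binding signal is a Z-score computed within each array. Data were drawn from 3228 arrays in the Consortium for Functional Glycomics database, restricted to those with a known protein sequence. Scores were averaged over arrays of the same protein sequence at different concentrations or buffers, and over linkers, and negative values can be taken as non-binding.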

GlcA(b1-3)Gal = molecular target: GlcA(b1-3)Gal
Summary of the method: as §1

GlcA(b1-3)GlcNAc = molecular target: GlcA(b1-3)GlcNAc
Summary of the method: as §1

GlcA(b1-6)Gal = molecular target: GlcA(b1-6)Gal
Summary of the method: as §1

[1] = molecular target: GlcA3S(b1-3)Gal(b1-4)GlcNAc(b1-2)Man
Summary of the method: as §1

[2] = molecular target: GlcA3S(b1-3)Gal(b1-4)GlcNAc(b1-3)Gal(b1-4)Glc
Summary of the method: as §1

[3] = molecular target: GlcNAc(a1-3)Gal(b1-4)GlcNAc
Summary of the method: as §1

[4] = molecular target: GlcNAc(a1-4)Gal(b1-3)GlcNAc
Summary of the method: as §1

[5] = molecular target: GlcNAc(a1-4)Gal(b1-4)GalNAc
Summary of the method: as §1

[6] = molecular target: GlcNAc(a1-4)Gal(b1-4)GlcNAc
Summary of the method: as §1

[7] = molecular target: GlcNAc(a1-4)Gal(b1-4)GlcNAc(b1-3)Gal(b1-4)Glc
Summary of the method: as §1

[8] = molecular target: GlcNAc(a1-4)Gal(b1-4)GlcNAc(b1-3)Gal(b1-4)GlcNAc
Summary of the method: as §1

[9] = molecular target: GlcNAc(a1-4)Gal(b1-4)GlcNAc(b1-3)Gal(b1-4)GlcNAc(b1-3)Gal(b1-4)GlcNAc
Summary of the method: as §1

[10] = molecular target: GlcNAc(a1-4)Gal(b1-4)GlcNAc(b1-3)Gal(b1-4)[Fuc(a1-3)]GlcNAc(b1-3)Gal(b1-4)[Fuc(a1-3)]GlcNAc
Summary of the method: as §1

[11] = molecular target: GlcNAc(a1-6)Gal(b1-4)GlcNAc
Summary of the method: as §1

[12] = molecular target: GlcNAc(b1-2)Gal(b1-3)GalNAc
Summary of the method: as §1

[13] = molecular target: GlcNAc(b1-2)Man(a1-3)[GlcNAc(b1-2)Man(a1-6)]Man(b1-4)GlcNAc(b1-4)GlcNAc
Summary of the method: as §1

[14] = molecular target: GlcNAc(b1-2)Man(a1-3)[GlcNAc(b1-2)Man(a1-6)]Man(b1-4)GlcNAc(b1-4)[Fuc(a1-6)]GlcNAc
Summary of the method: as §1

[15] = molecular target: GlcNAc(b1-2)Man(a1-3)[GlcNAc(b1-4)][GlcNAc(b1-2)Man(a1-6)]Man(b1-4)GlcNAc(b1-4)GlcNAc
Summary of the method: as §1

[16] = molecular target: GlcNAc(b1-2)Man(a1-3)[GlcNAc(b1-4)][GlcNAc(b1-2)Man(a1-6)]Man(b1-4)GlcNAc(b1-4)[Fuc(a1-6)]GlcNAc
Summary of the method: as §1

[17] = molecular target: GlcNAc(b1-2)[GlcNAc(b1-4)]Man(a1-3)[GlcNAc(b1-2)Man(a1-6)]Man(b1-4)GlcNAc(b1-4)GlcNAc
Summary of the method: as §1

[18] = molecular target: GlcNAc(b1-2)[GlcNAc(b1-4)]Man(a1-3)[GlcNAc(b1-4)][GlcNAc(b1-2)Man(a1-6)]Man(b1-4)GlcNAc(b1-4)GlcNAc
Summary of the method: as §1

[19] = molecular target: GlcNAc(b1-2)[GlcNAc(b1-4)]Man(a1-3)[GlcNAc(b1-4)][GlcNAc(b1-2)[GlcNAc(b1-6)]Man(a1-6)]Man(b1-4)GlcNAc(b1-4)GlcNAc
Summary of the method: as §1

[20] = molecular target: GlcNAc(b1-2)[GlcNAc(b1-4)]Man(a1-3)[GlcNAc(b1-4)][GlcNAc(b1-2)[GlcNAc(b1-6)]Man(a1-6)]Man(b1-4)GlcNAc(b1-4)[Fuc(a1-6)]GlcNAc
Summary of the method: as §1

[21] = molecular target: GlcNAc(b1-2)[GlcNAc(b1-6)]Man(a1-6)[GlcNAc(b1-2)Man(a1-3)]Man(b1-4)GlcNAc(b1-4)GlcNAc
Summary of the method: as §1

[22] = molecular target: GlcNAc(b1-2)[GlcNAc(b1-6)]Man(a1-6)[GlcNAc(b1-2)Man(a1-3)]Man(b1-4)GlcNAc(b1-4)[Fuc(a1-6)]GlcNAc
Summary of the method: as §1

[23] = molecular target: GlcNAc(b1-2)[GlcNAc(b1-6)]Man(a1-6)[GlcNAc(b1-4)][GlcNAc(b1-2)Man(a1-3)]Man(b1-4)GlcNAc(b1-4)GlcNAc
Summary of the method: as §1

GlcNAc(b1-3)Fuc = molecular target: GlcNAc(b1-3)Fuc
Summary of the method: as §1

GlcNAc(b1-3)Gal = molecular target: GlcNAc(b1-3)Gal
Summary of the method: as §1

[24] = molecular target: GlcNAc(b1-3)Gal(b1-3)GalNAc
Summary of the method: as §1

GlcNAc(b1-3)Gal(b1-4)Glc = molecular target: GlcNAc(b1-3)Gal(b1-4)Glc
Summary of the method: as §1

[25] = molecular target: GlcNAc(b1-3)Gal(b1-4)GlcNAc
Summary of the method: as §1

[26] = molecular target: GlcNAc(b1-3)Gal(b1-4)GlcNAc(b1-2)Man(a1-3)[GlcNAc(b1-3)Gal(b1-4)GlcNAc(b1-2)Man(a1-6)]Man(b1-4)GlcNAc(b1-4)GlcNAc
Summary of the method: as §1

[27] = molecular target: GlcNAc(b1-3)Gal(b1-4)GlcNAc(b1-2)Man(a1-3)[GlcNAc(b1-3)Gal(b1-4)GlcNAc(b1-2)Man(a1-6)]Man(b1-4)GlcNAc(b1-4)[Fuc(a1-6)]GlcNAc
Summary of the method: as §1

[28] = molecular target: GlcNAc(b1-3)Gal(b1-4)GlcNAc(b1-2)[GlcNAc(b1-3)Gal(b1-4)GlcNAc(b1-6)]Man(a1-6)[GlcNAc(b1-3)Gal(b1-4)GlcNAc(b1-2)Man(a1-3)]Man(b1-4)GlcNAc(b1-4)GlcNAc
Summary of the method: as §1

[29] = molecular target: GlcNAc(b1-3)Gal(b1-4)GlcNAc(b1-3)Gal(b1-4)GlcNAc
Summary of the method: as §1

[30] = molecular target: GlcNAc(b1-3)Gal(b1-4)GlcNAc(b1-3)Gal(b1-4)GlcNAc(b1-2)Man(a1-3)[GlcNAc(b1-3)Gal(b1-4)GlcNAc(b1-3)Gal(b1-4)GlcNAc(b1-2)Man(a1-6)]Man(b1-4)GlcNAc(b1-4)GlcNAc
Summary of the method: as §1

B1: Epa22 (Candida glabrata) (protein)
chain: MGSSHHHHHHSSGLVPRGSHMKRALSSQNPFGYPIGCSPQSTNVIPGLTMELYSYPIVSGTPPNCYDASYVDPEYPRTGYLKRKMIGKSTGVTGSLNYKFSVEKACMVKYGNLPAGYNYNEPLTVSNFTMLLYGYFKPQTSGIHTFFVNADDLLYINFGAGNAFDCCKREDSKFKLGEYVAYDIWHVDSSKNKVSLNLEKDVYYPIRMFFNNIGKDSSLDLSFSVNGAVEHITDFSGYLYSVPDQPDACPAPIGYDTTCK
Glc(b1-6)Glc
  glycan array binding signal (z-score): -0.364
GlcA(b1-3)Gal
  glycan array binding signal (z-score): -0.351
GlcA(b1-3)GlcNAc
  glycan array binding signal (z-score): -0.304
GlcA(b1-6)Gal
  glycan array binding signal (z-score): 5.98
[1]
  glycan array binding signal (z-score): -0.398
[2]
  glycan array binding signal (z-score): -0.369
[3]
  glycan array binding signal (z-score): -0.4
[4]
  glycan array binding signal (z-score): -0.418
[5]
  glycan array binding signal (z-score): -0.129
[6]
  glycan array binding signal (z-score): -0.374
[7]
  glycan array binding signal (z-score): -0.409
[8]
  glycan array binding signal (z-score): -0.413
[9]
  glycan array binding signal (z-score): -0.408
[10]
  glycan array binding signal (z-score): -0.399
[11]
  glycan array binding signal (z-score): 2.37
[12]
  glycan array binding signal (z-score): -0.396
[13]
  glycan array binding signal (z-score): -0.378
[14]
  glycan array binding signal (z-score): -0.389
[15]
  glycan array binding signal (z-score): -0.416
[16]
  glycan array binding signal (z-score): -0.35
[17]
  glycan array binding signal (z-score): -0.368
[18]
  glycan array binding signal (z-score): -0.334
[19]
  glycan array binding signal (z-score): -0.401
[20]
  glycan array binding signal (z-score): -0.395
[21]
  glycan array binding signal (z-score): -0.415
[22]
  glycan array binding signal (z-score): -0.347
[23]
  glycan array binding signal (z-score): -0.417
GlcNAc(b1-3)Fuc
  glycan array binding signal (z-score): -0.367
GlcNAc(b1-3)Gal
  glycan array binding signal (z-score): -0.389
[24]
  glycan array binding signal (z-score): -0.285
GlcNAc(b1-3)Gal(b1-4)Glc
  glycan array binding signal (z-score): -0.353
[25]
  glycan array binding signal (z-score): -0.312
[26]
  glycan array binding signal (z-score): -0.39
[27]
  glycan array binding signal (z-score): -0.347
[28]
  glycan array binding signal (z-score): -0.37
[29]
  glycan array binding signal (z-score): -0.331
[30]
  glycan array binding signal (z-score): 0.106
